Screen size: about 48,000 compounds; about 550 (1.1%) were called active. Inconclusive results (about 4%) are left out. Cut-off read from the data, not from the text of the source: active = potency below about 15 µM; inconclusive = mostly about 16 µM to 33 µM; inactive = weaker than that. The list shows a part of the results.
target: Lysosomal acid glucosylceramidase (Homo sapiens) (UniProt P04062); assay: Glucocerebrosidase; details: purified enzyme, resorufin glucoside fluorescence (screen aimed at inhibitors), 20 min;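 note: the screen sought inhibitors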
Sequence of UniProt P04062 (P04062 whole entry, looked up): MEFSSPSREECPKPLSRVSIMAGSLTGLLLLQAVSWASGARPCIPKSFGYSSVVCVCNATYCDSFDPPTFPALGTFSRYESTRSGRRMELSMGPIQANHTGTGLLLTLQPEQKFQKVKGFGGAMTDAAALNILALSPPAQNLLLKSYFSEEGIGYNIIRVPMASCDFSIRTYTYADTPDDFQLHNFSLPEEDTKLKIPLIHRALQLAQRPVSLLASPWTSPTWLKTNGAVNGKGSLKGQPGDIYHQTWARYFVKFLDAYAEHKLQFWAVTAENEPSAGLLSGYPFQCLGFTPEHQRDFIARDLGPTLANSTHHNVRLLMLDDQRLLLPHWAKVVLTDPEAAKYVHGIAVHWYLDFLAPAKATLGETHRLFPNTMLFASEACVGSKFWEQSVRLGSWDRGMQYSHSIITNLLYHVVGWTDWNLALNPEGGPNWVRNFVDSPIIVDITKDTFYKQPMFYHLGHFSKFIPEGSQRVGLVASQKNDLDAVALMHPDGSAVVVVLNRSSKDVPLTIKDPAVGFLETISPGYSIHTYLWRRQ
How it was run: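 Wild-type enzyme at 0.2 nM final in 50mM citric acid/KH2PO4, 10mM sodium taurocholate, 0.01% tween-20, pH 5.9, with resorufin beta-D-glucopyranoside at 30 uM final. Compounds titrated, 20 min at RT, red fluorescence read; AC50 from titration.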
Potency is the fitted concentration of half-maximal effect.

Potency, inactive:
Cc1ccc(CSc2nnc(-c3cccs3)n2C)cc1 > 76.9 µM
COc1ccc2[nH]c(=O)c(CN(Cc3nnnn3Cc3ccco3)C3CCCCC3)cc2c1
COc1ccc(-c2csc(NC(=O)c3cc(C)on3)c2C#N)cc1OC > 76.9 µM
Cc1nn(CC(=O)Nc2cccnc2N2CCOCC2)c(=O)c2ccccc12 > 76.9 µM
COc1ccc(CCNC(=O)c2c(O)c3c([nH]c2=O)CCCC3)cc1OC > 76.9 µM
C=CCn1c(=O)c2ccccc2n2c(SCc3csc(-c4ccccc4)n3)nnc12 > 76.9 µM
CC(C)COc1ccc(C(=O)NCc2ccco2)cc1 > 76.9 µM
Cc1nc(SCC(=O)Nc2ccnc3ccccc23)n[nH]1 > 76.9 µM
C=CCN1C(=O)C2C(C(=O)NCc3ccccc3)C3C=CC2(O3)C1C(=O)NC(C)(C)C (configuration not stated) > 76.9 µM
Cc1ccc2c(c1)nnn2C1CCN(CC(=O)Nc2ccc3c(c2)OCCO3)CC1 > 76.9 µM
CN(C)CCCN1C(=O)C(=O)/C(=C(/O)c2ccc(OCc3ccccc3)cc2)C1c1cccnc1 (configuration not stated) > 76.9 µM
CCOc1ccccc1C(=O)n1nc2nc(C)cc(C)c2c1N > 76.9 µM
CCOC(=O)c1sc(NC(=S)n2cc(C)cn2)c(C(=O)OCC)c1C > 76.9 µM
CNc1oc(-c2ccco2)nc1C#N > 76.9 µM
CCOC(=O)c1c(NC(=O)CSc2nnc(-c3ccco3)o2)sc(C(C)=O)c1C > 76.9 µM
Cc1ccc(NS(=O)(=O)c2ccc3c(c2)c(=O)n(C)c(=O)n3C)cc1F > 76.9 µM
CCn1cc(C(=O)NC2CCC(C)CC2)c(=O)c2cc(S(=O)(=O)N3CCCCC3)ccc21 (configuration not stated) > 76.9 µM
O=C1c2ccccc2C(=O)N1SC1CCCCC1 > 76.9 µM
O=C(Nc1nccs1)c1cnccn1 > 76.9 µM
COc1cccc(-c2nn3c(-c4cc(C)[nH]n4)nnc3s2)c1 > 76.9 µM
CN(C)c1ccc(CNn2cnnc2)cc1 > 76.9 µM
Cc1cc(S(=O)(=O)NCC(C)C)ccc1OCC(=O)NCc1ccccn1 > 76.9 µM
Cn1c(SCc2ccc(F)cc2)nnc1-c1ccccn1 > 76.9 µM
Cc1ccc(S(=O)(=O)NC(C)(C)CSc2nnc(N)s2)cc1 > 76.9 µM
Cc1ccccc1C(=O)NC1CCN(CC(=O)Nc2nccs2)CC1 > 76.9 µM
C=C(C)CSc1nnc2[nH]c(=O)cc(N)n12 > 76.9 µM
O=C(NCc1ccco1)C1CCCCN1S(=O)(=O)c1ccc(F)cc1 (configuration not stated) > 76.9 µM
COc1cc(C(c2nnnn2C2CCCC2)N2CCc3ccccc3C2)ccc1O (configuration not stated)
COC(=O)c1ccc(NC(=O)c2ccccc2NS(C)(=O)=O)cc1 > 76.9 µM
COC(=O)Cc1c(C)nc2nc[nH]n2c1=O > 76.9 µM
O=c1ccc2ccc(OCc3nnc(-c4ccccc4Br)o3)cc2o1 > 76.9 µM
Cc1cc(C)nc(SCCC(=O)N2CCOCC2)n1 > 76.9 µM
Cc1cc(Oc2ccc(-c3ccccc3)cc2)nc(N2CCOCC2)n1 > 76.9 µM
CCOC(=O)CCSc1nnc(-c2cccnc2)n1-c1ccccc1OC > 76.9 µM
Cc1ccsc1C(=O)OCC(=O)c1cc2ccccc2o1 > 76.9 µM
Cc1ccnc(N2CCCC(C(=O)Nc3cc(F)ccc3C)C2)n1 (configuration not stated) > 76.9 µM
CC(=O)Nc1ccc2c(c1)nc(CCN1CCN(C)CC1)n2C > 76.9 µM
O=C(Nc1ccc(C2CCCCC2)cc1)C1CCCN(c2ncccn2)C1 (configuration not stated) > 76.9 µM
Cc1ccc(C(=O)NC2CCCCCC2)o1 > 76.9 µM
O=C(N1CCCCCC1)N1CCN(C(=O)N2CCOCC2)CC1 > 76.9 µM
COc1ccc(S(=O)(=O)NC(C)C(=O)Nc2ccccc2F)cc1 (configuration not stated) > 76.9 µM
CC(c1nnc(SCC(=O)Nc2sccc2C#N)n1-c1ccc(Cl)cc1)N(C)C (configuration not stated) > 76.9 µM
Cc1ccc(-n2c(SCC3CCCCO3)nnc2-c2ccco2)cc1 (configuration not stated) > 76.9 µM
c1ccc2c(c1)oc1c(NCCN3CCOCC3)ncnc12 > 76.9 µM
CC1(C)Cc2c(sc3c2c(=N)n(Cc2ccco2)c(=O)n3Cc2ccc(F)cc2)CO1 > 76.9 µM
N#CC1=C(SCC(=O)NC2CC2)NC(=O)C(C#N)C12CCCCC2 (configuration not stated) > 76.9 µM
Fc1ccccc1Cn1nnc2c(NCc3ccccn3)ncnc21 > 76.9 µM
CCOC(=O)c1cc2sccc2n1Cc1ccc(C#N)cc1 > 76.9 µM
COc1cc(C2/C(=C(/O)c3ccc(OCC(C)C)cc3)C(=O)C(=O)N2CCN(C)C)ccc1O (configuration not stated) > 76.9 µM
COc1ccc(S(=O)(=O)n2nc(OC(=O)c3ccco3)cc2N)cc1 > 76.9 µM
CCOc1cccc(-c2nnc(SCC(=O)Nc3cc(OC)cc(OC)c3)n2N)c1 > 76.9 µM
CCC(=O)Nc1ccc(NC(=O)c2ccccc2Cl)nc1 > 76.9 µM
CC1(C)CC(=O)c2cnc(NC(=O)c3ccco3)nc2C1 > 76.9 µM
COc1ccc(-c2c3c(=O)n(C)c(=O)n(C)c3cn2-c2cc(OC)ccc2OC)cc1 > 76.9 µM
O=C(CN1C(=O)c2ccccc2C1=O)N1CCCCC1 > 76.9 µM
CC1Cn2c(nc3sc4c(c3c2=O)CCC4)N1CCO (configuration not stated) > 76.9 µM
COC(=O)c1cc(-c2c[nH]c3ccccc23)n[nH]1 > 76.9 µM
COC(=O)c1cc(-c2ccc(OC)c(OC)c2)on1 > 76.9 µM
O=C(CSc1nnc(-c2ccco2)n1-c1ccccc1)N1CCc2ccccc21 > 76.9 µM
O=C(CN1CCOCC1)Nc1ccc(Br)cn1 > 76.9 µM
CCOC(=O)N1CCN(S(=O)(=O)c2cc(Br)cc3c2N(C(=O)C2CC2)CC3)CC1 > 76.9 µM
CCCc1cc(-c2ccc(O)c(OCC)c2)c(C#N)c(N)n1 > 76.9 µM
CCc1c(O)nc(SCC(=O)Nc2ccccc2C)[nH]c1=O > 76.9 µM
Cc1c(N=Cc2ccncc2)c(=O)n(-c2ccccc2)n1C > 76.9 µM
CCOc1ccc(-c2nnn(CC(=O)NCc3ccc(OC)cc3)n2)cc1OCC > 76.9 µM
O=C(NCc1ccccc1)N(Cc1cc2cc3c(cc2[nH]c1=O)OCCO3)CC1CCCO1 (configuration not stated) > 76.9 µM
CCOc1ccc2[nH]c(=O)c(C(c3nnnn3C3CCCCC3)N3CCN(CC)CC3)cc2c1 (configuration not stated) > 76.9 µM
COc1ccc(C(=O)COC(=O)c2ccco2)cc1 > 76.9 µM
COc1ccc(OC)c(S(=O)(=O)N2c3ccccc3CC2C)c1 (configuration not stated) > 76.9 µM
CCCCc1nc2ccccc2c(=O)n1NC(=O)c1c(O)c2cccc3c2n(c1=O)CCC3 > 76.9 µM
C=CCNC(=O)c1nn2cccnc2c1Cl > 76.9 µM
O=C1C2C3C=CC(C3)C2C(=O)N1c1n[nH]c(-c2cccnc2)n1 (configuration not stated) > 76.9 µM
CCCC1C(c2ccco2)NC(c2ccco2)CC1(C)O (configuration not stated) > 76.9 µM
Nc1c(C(=O)NC2CC2)c2nc3ccccc3nc2n1-c1ccc2c(c1)OCO2 > 76.9 µM
O=C(O)CCS(=O)(=O)Cc1cccc(Cl)c1 > 76.9 µM
Cc1onc(-c2ccccc2)c1C(=O)Nc1cccnc1 > 76.9 µM
CCOC(=O)N1CCN(S(=O)(=O)c2ccc3[nH]c(=O)sc3c2)CC1 > 76.9 µM
Cc1ccc(OC(=O)c2cccc(C(=O)Oc3ccc(C)cn3)n2)nc1 > 76.9 µM
O=c1cc(Cn2nnc(-c3ccc(Cl)cc3)n2)nc2sccn12 > 76.9 µM
COC(=O)c1cc(OC)c(OC)cc1NC(=O)CN1CCOCC1 > 76.9 µM
O=C(CCCCCC(=O)N(CCO)CCO)N(CCO)CCO > 76.9 µM
COc1ccc(OC)c(NC(=O)CNC(=O)Cn2cnc3ccccc3c2=O)c1 > 76.9 µM
CCCCn1c(SCC(=O)N2CCOCC2)nnc1-c1cccs1 > 76.9 µM
COc1cccc(N2C(=O)C3C(C2=O)C2C=CC3C23CC3)c1 (configuration not stated) > 76.9 µM
O=C(COc1ncnc2ccccc12)N1CCOCC1 > 76.9 µM
O=C(/C=N/O)NCCN1CCCCC1 > 76.9 µM
O=C(NC1(C(F)(F)F)NC(=O)N(Cc2ccco2)C1=O)c1cccs1 (configuration not stated) > 76.9 µM
Nc1ncnc2c1ncn2CCNCCc1ccccc1 > 76.9 µM
Cc1ccc(OC(=O)NC2CCS(=O)(=O)C2)cc1C (configuration not stated) > 76.9 µM
COc1ccc(-n2c(SCC(=O)c3c(N)n(C)c(=O)n(C)c3=O)nc3ccccc32)cc1 > 76.9 µM
COc1cccc(NC(=O)[C@@H]2CCCN2C(=O)C2CCN(S(=O)(=O)c3ccc(C)cc3)CC2)c1 > 76.9 µM

Potency, active:
Cc1ccc(-c2noc(CCC(=O)NCCN3CCc4ccccc4C3)n2)cc1 15 µM

Reference: PubChem BioAssay AID360 (National Center for Advancing Translational Sciences (NCATS), 2006)
